Data: US20260193238A1, “PHARMACEUTICAL COMPOUNDS AS PARP7 AND/OR PARP1 INHIBITORS” (Duke Street Bio Limited, priority 2022, published 2026)

target: T1, PARP7 (amino acids 456-657) (Homo sapiens, UniProt Q7Z3E1); assay: PARP7 biochemical DELFIA assay (auto-MARylation); conditions: Table 1
T1 sequence (Q7Z3E1 456-657): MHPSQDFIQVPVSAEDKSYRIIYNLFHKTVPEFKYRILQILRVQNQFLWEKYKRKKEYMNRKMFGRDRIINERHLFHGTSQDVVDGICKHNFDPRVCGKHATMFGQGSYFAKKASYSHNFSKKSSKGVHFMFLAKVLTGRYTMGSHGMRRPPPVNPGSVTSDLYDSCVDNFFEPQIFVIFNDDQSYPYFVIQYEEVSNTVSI

IC50 [nM]	Molecule
100 to 1000	O=C(CCN1CCCCC(c2cc(C(F)(F)F)c(=O)[nH]n2)C1)N1CCN(c2ncc(C(F)(F)F)cn2)CC1 (racemic) [Compound 12rac]
100 to 1000	O=C(CCN1CCCC(c2cc(C(F)(F)F)c(=O)[nH]n2)C1)N1CCN(c2ncc(F)cn2)CC1 (racemic) [Compound 17rac]
100 to 1000	O=C(CCN1CCCC(c2cc(C(F)(F)F)c(=O)[nH]n2)C1)N1CCN(c2ncc(Cl)cn2)CC1 (racemic) [Compound 20rac]
10 to 100	O=C(CCN1CCCCC1c1cc(C(F)(F)F)c(=O)[nH]n1)N1CCN(c2ncc(C(F)(F)F)cn2)CC1 (racemic) [Compound 21rac]
100 to 1000	CCc1cc(C2CCCN(CCC(=O)N3CCN(c4ncc(C(F)(F)F)cn4)CC3)C2)c[nH]c1=O (racemic) [Compound 22rac, 3-ethyl-5-(1-(3-oxo-3-(4-(5-(trifluoromethyl)pyrimidin-2-yl)piperazin-1-yl)propyl)piperidin-3-yl)pyridin-2(1H)-one]
1000 to 10000	O=C(CCN1CCCC(c2cc(C(F)(F)F)c(=O)[nH]n2)C1)N1CCN(c2ncc(C(F)(F)F)cn2)CC1 (single isomer, unassigned) [Compound 1a, 6-(1-(3-oxo-3-(4-(5-(trifluoromethyl)pyrimidin-2-yl)piperazin-1-yl)propyl)piperidin-3-yl)-4-(trifluoromethyl)pyridazin-3(2H)-one]
100 to 1000	O=C(CCN1CCCC(c2cc(C(F)(F)F)c(=O)[nH]n2)C1)N1CCN(c2ncc(C(F)(F)F)cn2)CC1 (single isomer, unassigned) [Compound 1b, 6-(1-(3-oxo-3-(4-(5-(trifluoromethyl)pyrimidin-2-yl)piperazin-1-yl)propyl)piperidin-3-yl)-4-(trifluoromethyl)pyridazin-3(2H)-one]
100 to 1000	O=C(CN1CCCC(c2cc(C(F)(F)F)c(=O)[nH]n2)C1)NC1CCN(c2ncc(C(F)(F)F)cn2)CC1 (single isomer, unassigned) [Compound 2a]
10 to 100	O=C(CN1CCCC(c2cc(C(F)(F)F)c(=O)[nH]n2)C1)NC1CCN(c2ncc(C(F)(F)F)cn2)CC1 (single isomer, unassigned) [Compound 2b]
10 to 100	CN(C(=O)CN1CCCC(c2cc(C(F)(F)F)c(=O)[nH]n2)C1)C1CCN(c2ncc(C(F)(F)F)cn2)CC1 (single isomer, unassigned) [Compound 3a]
100 to 1000	CN(C(=O)CN1CCCC(c2cc(C(F)(F)F)c(=O)[nH]n2)C1)C1CCN(c2ncc(C(F)(F)F)cn2)CC1 (single isomer, unassigned) [Compound 3b]
1000 to 10000	O=C(CCC1CCN(c2ncc(C(F)(F)F)cn2)CC1)N1CCCC(c2cc(C(F)(F)F)c(=O)[nH]n2)C1 (single isomer, unassigned) [Compound 4a]
100 to 1000	O=C(CCC1CCN(c2ncc(C(F)(F)F)cn2)CC1)N1CCCC(c2cc(C(F)(F)F)c(=O)[nH]n2)C1 (single isomer, unassigned) [Compound 4b]
100 to 1000	CCc1cc(C2CCCN(CCC(=O)N3CCN(c4ncc(C(F)(F)F)cn4)CC3)C2)n[nH]c1=O (single isomer, unassigned) [Compound 6a, 4-ethyl-6-(1-(3-oxo-3-(4-(5-(trifluoromethyl)pyrimidin-2-yl)piperazin-1-yl)propyl)piperidin-3-yl)pyridazin-3(2H)-one]
1000 to 10000	CCc1cc(C2CCCN(CCC(=O)N3CCN(c4ncc(C(F)(F)F)cn4)CC3)C2)n[nH]c1=O (single isomer, unassigned) [Compound 6b, 4-ethyl-6-(1-(3-oxo-3-(4-(5-(trifluoromethyl)pyrimidin-2-yl)piperazin-1-yl)propyl)piperidin-3-yl)pyridazin-3(2H)-one]
100 to 1000	O=C(CCN1CCC(c2cc(C(F)(F)F)c(=O)[nH]n2)C1)N1CCN(c2ncc(C(F)(F)F)cn2)CC1 (single isomer, unassigned) [Compound 7a]

IC50 [nM]	Molecule
100 to 1000	O=C(CCN1CCCC(c2cc(C(F)(F)F)c(=O)[nH]n2)C1)N1CCN(c2ccc(F)cn2)CC1 (single isomer, unassigned) [Compound 8a]
1000 to 10000	O=C(CCN1CCCC(c2cc(C(F)(F)F)c(=O)[nH]n2)C1)N1CCN(c2ccc(F)cn2)CC1 (single isomer, unassigned) [Compound 8b]
100 to 1000	O=C(CCN1CCN(c2ncc(C(F)(F)F)cn2)CC1)N1CCCC(c2cc(C(F)(F)F)c(=O)[nH]n2)C1 (single isomer, unassigned) [Compound 9a]
1000 to 10000	N#Cc1ccc(N2CCN(C(=O)CCN3CCCC(c4cc(C(F)(F)F)c(=O)[nH]n4)C3)CC2)nc1 (single isomer, unassigned) [Compound 11b]
1000 to 10000	O=C(CCN1CCCC(c2cc(C(F)(F)F)c(=O)[nH]n2)C1)N1CCN(c2ncc(OC(F)(F)F)cn2)CC1 (single isomer, unassigned) [Compound 13a]
10 to 100	O=C(CN1CCCC(c2cc(C(F)(F)F)c(=O)[nH]n2)C1)N1CCN(c2ncc(C(F)(F)F)cn2)CC1 (single isomer, unassigned) [Compound 14a]
10 to 100	O=C(CN1CCCC(c2cc(C(F)(F)F)c(=O)[nH]n2)C1)N1CCN(c2ncc(C(F)(F)F)cn2)CC1 (single isomer, unassigned) [Compound 14b]
100 to 1000	O=C(CCN1CCCC(c2cc(C(F)(F)F)c(=O)[nH]n2)C1)N1CCN(c2ccc(Cl)cn2)CC1 (single isomer, unassigned) [Compound 15a]
1000 to 10000	O=C(CCN1CCCC(c2cc(C(F)(F)F)c(=O)[nH]n2)C1)N1CCN(c2ccc(Cl)cn2)CC1 (single isomer, unassigned) [Compound 15b]
≤ 10	O=C(CCN1CCCC1c1cc(C(F)(F)F)c(=O)[nH]n1)N1CCN(c2ncc(C(F)(F)F)cn2)CC1 (single isomer, unassigned) [Compound 18a, 6-(1-(3-oxo-3-(4-(5-(trifluoromethyl)pyrimidin-2-yl)piperazin-1-yl)propyl)pyrrolidin-2-yl)-4-(trifluoromethyl)pyridazin-3(2H)-one]
10 to 100	O=C(CCN1CCCC1c1cc(C(F)(F)F)c(=O)[nH]n1)N1CCN(c2ncc(C(F)(F)F)cn2)CC1 (single isomer, unassigned) [Compound 18b, 6-(1-(3-oxo-3-(4-(5-(trifluoromethyl)pyrimidin-2-yl)piperazin-1-yl)propyl)pyrrolidin-2-yl)-4-(trifluoromethyl)pyridazin-3(2H)-one]
1000 to 10000	O=C(CN1CCCC1c1cc(C(F)(F)F)c(=O)[nH]n1)N1CCN(c2ncc(C(F)(F)F)cn2)CC1 (single isomer, unassigned) [Compound 24a, 6-(1-(2-oxo-2-(4-(5-(trifluoromethyl)pyrimidin-2-yl)piperazin-1-yl)ethyl)pyrrolidin-2-yl)-4-(trifluoromethyl)pyridazin-3(2H)-one]
≤ 10	O=C(CN1CCCC1c1cc(C(F)(F)F)c(=O)[nH]n1)N1CCN(c2ncc(C(F)(F)F)cn2)CC1 (single isomer, unassigned) [Compound 24b, 6-(1-(2-oxo-2-(4-(5-(trifluoromethyl)pyrimidin-2-yl)piperazin-1-yl)ethyl)pyrrolidin-2-yl)-4-(trifluoromethyl)pyridazin-3(2H)-one]
10 to 100	O=C(CCN1CCCC(c2c[nH]c(=O)c(C(F)(F)F)c2)C1)N1CCN(c2ncc(C(F)(F)F)cn2)CC1 (single isomer, unassigned) [Compound 25a]
100 to 1000	O=C(CCN1CCCC(c2c[nH]c(=O)c(C(F)(F)F)c2)C1)N1CCN(c2ncc(C(F)(F)F)cn2)CC1 (single isomer, unassigned) [Compound 25b]
1000 to 10000	O=C(CCN1CCCC(c2cc(C(F)(F)F)c(=O)[nH]n2)C1)N1CCN(c2ncc(C(F)(F)F)s2)CC1 (single isomer, unassigned) [Compound 27a]

Molecule	IC50 [nM]
6-(1-(3-oxo-3-(4-(5-(trifluoromethyl)pyrimidin-2-yl)piperazin-1-yl)propyl)azetidin-2-yl)-4-(trifluoromethyl)pyridazin-3(2H)-one [Compound 5rac]	≤ 10
O=C(CN1CCC(c2cc(C(F)(F)F)c(=O)[nH]n2)C1)N1CCN(c2ncc(C(F)(F)F)cn2)CC1 (racemic) [Compound 19rac]	10 to 100
O=C(CCN1CCCC(c2cc(C(F)(F)F)c(=O)[nH]n2)C1)N1CCN(c2cnc(C(F)(F)F)cn2)CC1 (racemic) [Compound 30rac]	100 to 1000

same assay, conditions: Table 1A

IC50 [nM]	Molecule
≤ 10	N#Cc1cnc(N2CCN(C(=O)CN3CCCC3c3cc(C(F)(F)F)c(=O)[nH]n3)CC2)s1 (racemic) [Compound 44rac]
≤ 10	N#Cc1ccc(N2CCN(C(=O)CN3CCCC3c3cc(C(F)(F)F)c(=O)[nH]n3)CC2)nc1 (racemic) [Compound 47rac]
≤ 10	O=C(CN1CCCC1c1cc(C(F)(F)F)c(=O)[nH]n1)N1CCN(c2ncc(C(F)(F)F)s2)CC1 (racemic) [Compound 52rac]
10 to 100	CNC(=O)c1ccc(N2CCN(C(=O)CN3CCC3c3cc(C(F)(F)F)c(=O)[nH]n3)CC2)cn1 (racemic) [Compound 53rac]
≤ 10	O=C(CN1CCCC1c1c[nH]c(=O)c(C(F)(F)F)c1)N1CCN(c2ncc(C(F)(F)F)cn2)CC1 (racemic) [Compound 60rac, 5-(1-(2-oxo-2-(4-(5-(trifluoromethyl)pyrimidin-2-yl)piperazin-1-yl)ethyl)pyrrolidin-2-yl)-3-(trifluoromethyl)pyridin-2(1H)-one]
10 to 100	O=C(CN1CCCC1c1cc(C2CC2)c(=O)[nH]n1)N1CCN(c2ncc(C(F)(F)F)cn2)CC1 (racemic) [Compound 65rac]
≤ 10	O=C(CN1CCCC1c1cc(Cl)c(=O)[nH]n1)N1CCN(c2ncc(C(F)(F)F)cn2)CC1 (racemic) [Compound 68rac, 4-chloro-6-(1-(2-oxo-2-(4-(5-(trifluoromethyl)pyrimidin-2-yl)piperazin-1-yl)ethyl)pyrrolidin-2-yl)pyridazin-3(2H)-one]
100 to 1000	N#Cc1[nH]c(=O)c(C(F)(F)F)cc1C1CCCN1CC(=O)N1CCN(c2ncc(C(F)(F)F)cn2)CC1 (racemic) [Compound 115rac]
